According to PubChem BioAssay AID504339 (National Center for Advancing Translational Sciences (NCATS), 2011):
Among all 390,000 compounds or so, about 17,000 (4.4%) were called active. The shares of active, inactive and inconclusive entries below differ from those in the screen. Calls follow the shape of the dose curve; as a rule, active = well fitted inhibition curve with a large enough effect; inconclusive = small, poorly fitted or top-dose-only effect; inactive = no such curve, though single readings can be large or run the other way. A potency beside an inconclusive call is a rough fit, not a confirmed value. Some compounds were tested as several samples or in several runs, with calls that do not always agree.

Each molecule was assayed against Lysine-specific demethylase 4A (Homo sapiens) (UniProt O75164) (assay: qHTS Assay for Inhibitors of JMJD2A-Tudor Domain). Conditions: AlphaScreen JMJD2A-Tudor / H3K4me3 peptide binding; activity change, negative = inhibition: at 114 µM (top of the series).
Sequence of UniProt O75164 (O75164 whole entry, looked up, the tested form may be a part): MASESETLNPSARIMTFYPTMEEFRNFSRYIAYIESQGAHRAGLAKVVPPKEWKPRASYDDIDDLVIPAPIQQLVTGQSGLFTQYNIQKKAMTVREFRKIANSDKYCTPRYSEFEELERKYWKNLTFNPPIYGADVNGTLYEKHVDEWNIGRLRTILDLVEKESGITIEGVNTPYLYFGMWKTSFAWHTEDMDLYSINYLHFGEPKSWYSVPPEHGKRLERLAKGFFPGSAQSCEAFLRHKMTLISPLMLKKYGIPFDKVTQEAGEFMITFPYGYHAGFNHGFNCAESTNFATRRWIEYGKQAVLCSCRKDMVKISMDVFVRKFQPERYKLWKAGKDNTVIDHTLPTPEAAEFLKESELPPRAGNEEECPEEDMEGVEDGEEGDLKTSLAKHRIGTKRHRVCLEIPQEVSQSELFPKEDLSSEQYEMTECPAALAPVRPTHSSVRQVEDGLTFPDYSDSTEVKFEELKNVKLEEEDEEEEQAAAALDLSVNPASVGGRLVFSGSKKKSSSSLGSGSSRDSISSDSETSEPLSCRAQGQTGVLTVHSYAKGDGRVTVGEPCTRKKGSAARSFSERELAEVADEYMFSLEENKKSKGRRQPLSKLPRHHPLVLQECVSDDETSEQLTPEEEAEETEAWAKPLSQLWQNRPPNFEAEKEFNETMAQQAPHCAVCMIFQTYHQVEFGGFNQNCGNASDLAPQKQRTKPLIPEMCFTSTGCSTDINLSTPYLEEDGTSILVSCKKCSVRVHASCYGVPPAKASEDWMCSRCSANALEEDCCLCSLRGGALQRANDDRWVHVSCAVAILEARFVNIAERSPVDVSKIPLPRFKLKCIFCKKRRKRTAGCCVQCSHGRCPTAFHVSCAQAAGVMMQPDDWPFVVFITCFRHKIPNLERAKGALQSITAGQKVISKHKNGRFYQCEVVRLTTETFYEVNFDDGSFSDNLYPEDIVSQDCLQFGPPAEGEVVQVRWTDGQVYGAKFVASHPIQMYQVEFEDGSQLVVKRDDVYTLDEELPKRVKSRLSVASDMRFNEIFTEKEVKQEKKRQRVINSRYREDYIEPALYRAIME
% is scaled to controls: 0 for no effect and ±100 for the full control effect; potency is read from the fitted curve at half-maximal effect; tags tell the direction and shape of the fitted curve.
Also: nearly all actives have a fitted effect of over 50% in size.

Activity change, negative = inhibition, inactive:
Cc1cccnc1NC(=O)c1ccc(Cl)c(S(=O)(=O)N2CCCCCC2)c1 -7.35%, O=C(Oc1cccc(/C=N/Nc2nc(Nc3ccccc3)nc(N3CCOCC3)n2)c1)c1ccco1 -27.5%, O=C(N/N=C/c1cc([N+](=O)[O-])ccc1O)c1cccc(NC(=O)c2cccc(Cl)c2)c1 -12.7%, O=C(OCc1c(-c2ccccc2)ncc2ccccc12)c1ccc(Cl)cc1Cl 0.709%, O=C(Nc1ccc(S(=O)(=O)N2CCOCC2)cc1)c1ccc(S(=O)(=O)N2CCOCC2)cc1 -4.93%, COc1ccc([N+](=O)[O-])cc1C(=O)NCCOc1ccc(Cl)cc1 -15.1%, O=C(NC(=S)N1CCN(c2ccc(O)cc2)CC1)c1cccs1 -27.5%, O=C(Nc1ccccc1C(=O)N1CCN(c2ccccc2)CC1)c1ccco1 -17.6% [at 57.1 µM], N#Cc1ccccc1CSc1ccccn1 -5.81%, CC(C)Cn1c(C2CC(=O)N(c3ccccc3Cl)C2)nc2ccccc21 (configuration not stated) -2.01%, COc1ccc(CNC(=O)CCc2c(C)c3cc4c(C)c(C)oc4cc3oc2=O)cc1 -35.5%, Cc1c(C(=O)OCC(=O)N(C)CC(=O)Nc2ccc(F)cc2)oc2ccccc12 -6.77%, CN1CCN(CCCNC(=O)c2cnn(-c3ccc(F)cc3)c2-n2cccc2)CC1 -22.4%, COc1ccccc1N(C)S(=O)(=O)c1ccc(C(=O)NCC(c2ccco2)N2CCCCC2)cc1 (configuration not stated) -25.5%, N=C1c2ccccc2CN1NC(=O)COc1ccc(Cl)cc1 -2.74%

Potency, inconclusive:
C/C(=N/NC(=O)CNc1ccc(C)cc1)c1ccc(Br)s1 50.1 µM [inhibitor, partial curve], O=C(Oc1ccccc1C(=S)N1CCOCC1)c1ccc([N+](=O)[O-])cc1[N+](=O)[O-] 20 µM [inhibitor, partial curve], COc1ccc(/C=N/Nc2nnc(Cc3ccc(OC)c(OC)c3)c(=O)[nH]2)cc1OC 25.1 µM [inhibitor, single point], O=C(Nc1nc2ccccc2s1)c1ccc(N2CCCCC2)c([N+](=O)[O-])c1 35.5 µM [inhibitor, partial curve], CN(C)c1ccc(NC(=O)c2cnsn2)cc1 63.1 µM [inhibitor, partial curve, poor fit], COCCNC(=S)N(CCc1c(C)[nH]c2ccc(F)cc12)Cc1ccc(C)cc1 39.8 µM [inhibitor, partial curve], COc1ccc(C2/C(=C(/O)c3ccc4c(c3)CC(C)O4)C(=O)C(=O)N2CCN2CCOCC2)cc1OC (configuration not stated) 39.8 µM [inhibitor, single point], Oc1ccc(/C=N/Nc2ccc3ccccc3c2)c(O)c1 50.1 µM [inhibitor, partial curve], Cc1c(N2C(=O)c3ccc4c5c(ccc(c35)C2=O)CC4)c(=O)n(-c2ccccc2)n1C 56.2 µM [inhibitor, partial curve, poor fit], Cc1cc(OCc2cc(C(=O)N(Cc3nccn3C)C(C)C)no2)cc(C)c1Cl 79.4 µM [inhibitor, partial curve], Cc1[nH]c(=S)c(C#N)c(C)c1Cc1ccccc1 22.4 µM [inhibitor, single point], Cc1c(C(=O)N2CCN(c3ccc(F)cc3)CC2)sc2nc3n(c(=O)c12)CCC3 15.8 µM [inhibitor, full curve], COc1ccc2cc(CO)n(C)c2c1 100 µM [inhibitor, partial curve], CCN1CCN(Cc2ccc(NC(=O)c3ccc(C)c(NC(=O)c4cccc5[nH]ccc45)c3)cc2C(F)(F)F)CC1 56.2 µM [inhibitor, partial curve], O=c1c(Cl)c(N2CCN(S(=O)(=O)c3ccccc3)CC2)cnn1-c1ccccc1 39.8 µM [inhibitor, partial curve], CC(C)Cn1c(=O)c2c(nc3n2CCCN3CCc2ccccc2)n(C)c1=O 50.1 µM [inhibitor, partial curve, poor fit], O=C(Nc1c(C(=O)N2CCN(c3ccccc3F)CC2)oc2ccccc12)c1ccco1 63.1 µM [inhibitor, partial curve, poor fit], COc1ccc2c(Cl)c(-c3nnc(SCC(=O)c4ccccc4)n3C)sc2c1 70.8 µM [inhibitor, single point], CCCCCn1c(S(=O)(=O)O)nc2ccccc21 89.1 µM [inhibitor, single point], CCc1cc(-c2n[nH]c(C)c2-c2ccccc2Cl)c(O)cc1OC 50.1 µM [inhibitor, partial curve], Fc1ccc(C(CCNCc2ccccn2)c2ccc(Cl)cc2)cc1 (configuration not stated) 44.7 µM [inhibitor, partial curve]

Potency, active:
Cc1ccc(Cn2c(CCNc3nc(-c4ccc(Cl)c([N+](=O)[O-])c4)cs3)nc3cc(C(=O)NCCCO)ccc32)cc1 35.5 µM, O=[N+]([O-])c1cccnc1N1CCN(c2ccccc2F)CC1 50.1 µM, O=C(Oc1c(Cl)cc(Cl)c2cccnc12)c1ccco1 89.1 µM, O=c1[nH]c(CN2CCN(c3ccccc3O)CC2)nc2ccccc12 8.91 µM, O=C(COc1cccc(F)c1)N1c2ccccc2Sc2ccccc21 56.2 µM, CCOC(CNC(=O)c1ccc(N2CCc3ccccc32)c([N+](=O)[O-])c1)OCC 56.2 µM, CC(=O)NC1Sc2ccccc2N=C1c1ccccc1 (configuration not stated) 50.1 µM, Cc1ccc(C(=O)Nc2nnc(S(=O)(=O)N3CCCCCC3)s2)cc1 25.1 µM, CCOC(=O)CCC(=O)Nc1nnc2n1CCS2 39.8 µM, Brc1ccccc1C1CC(c2ccccc2)=Nc2ccccc2N1 (configuration not stated) 39.8 µM, N#CC1=C2SCN(C3CCCCC3)CN2C(=O)CC1c1ccc(Br)cc1 (configuration not stated) 15.8 µM
